Here are results for 61 molecules from PubChem BioAssay AID1963576 (National Center for Advancing Translational Sciences (NCATS), 2024).

Molecules are shown by their SMILES. Screen size: about 46,000 compounds; about 60 (0.1%) were called active. Another 3% or so got no clear call; they are omitted. The call rests on the fitted dose curve; in most records, active means well fitted inhibition curve with a large enough effect; inconclusive means small, poorly fitted or top-dose-only effect; inactive means no such curve, though single readings can be large or run the other way. The list shows a part of the results.

A short description of the assay: Primary qHTS assay for Inhibitors of ovarian cancer metastasis using an organotypic tumor microenvironment (TME) model. Further: nearly all actives have a fitted effect of over 65% in size.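 On activity change, negative = inhibition: plate controls were DMSO wells for no effect and tomatine positive control wells for full effect.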 To be noted: SKOV3ip1-GFP adhesion/invasion on 3D omental model, fluorescence; series mostly up to 45.8 µM; activity change, negative = inhibition: at the top concentration. In short, it runs like this:
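A 3D layer of primary human omental fibroblasts, mesothelial cells, fibronectin and collagen I, grown 48 hr, received SKOV3ip1-GFP cells in serum-free medium plus compounds at 0.36-46 umol/L. After 2 hr RT and 16 hr 37 C, fixed adherent GFP cells were counted; normalized to DMSO and tomatine.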
On to `Cc1cc(C)cc(-n2ccnc(NCc3ccc(F)cc3)c2=O)c1`, for which the “activity change, negative = inhibition” value is inactive: -10.5%.
Consider `COc1ccc(Cl)cc1C(=O)Nc1c2c(nn1-c1ccc(Cl)cc1)CS(=O)(=O)C2`, for which the “activity change, negative = inhibition” value is inactive: 2.99%.
Take `COc1ccccc1CNS(=O)(=O)c1ccc(N2CCCCS2(=O)=O)cc1`: the “activity change, negative = inhibition” value is inactive: 0.492%.
Still for that read-out and setting: the result for `COc1ccc(OC)c(CCNC(=O)C(C)n2c(C)c3cnn(-c4ccccc4)c(=O)c3c2C)c1` (stereo unspecified) reads inactive: 25.4%; that for `CCOC(=O)c1c(C)[nH]c(C)c1S(=O)(=O)N1CCC(C(=O)NCc2ccc(N(C)C)cc2)CC1`, inactive: -29.5%; that for `CN(C)C1(CNC(=O)COc2ccc(C(C)(C)C)cc2)CCCCC1`, inactive: -4.35%.
`COc1ccccc1OCC(=O)Nc1c(C(=O)c2ccc(C)cc2)oc2ccccc12`: the result was inactive.
Regarding `O=C(Nc1ccc2c(c1)OCO2)c1cc(-c2ccc(Cl)cc2)on1`, the “activity change, negative = inhibition” value is inactive: 1.88%.
Same read-out and setting: the result for `CCCCCn1c(-c2cccc(C)c2)nc2ccccc21` reads inactive: -2.06%.
Turning to `Cc1ccc(Cn2c(=O)n(-c3ccc(C)c(C)c3)c(=O)c3c(C)c(C)sc32)cc1`, the “activity change, negative = inhibition” value is inactive: 1.47%.
For the molecule `CCOc1ccc(NC(=O)Cn2cc(C(=O)c3ccccc3)c(=O)c3cc4c(cc32)OCO4)cc1`, the molecule was called inactive.
With `COc1ccc(Cl)cc1NC(=O)CSc1nc(=O)[nH]c2c1CCCC2`, the “activity change, negative = inhibition” value was inactive: -0.313%.
Turning to `COc1ccccc1NC(=O)c1oc2ccccc2c1NC(=O)COc1ccccc1OC`, the “activity change, negative = inhibition” value is inactive: -4.2%.
On to `CCOc1ccc(CNC(=O)C2=Cc3cc(Br)ccc3OC2)cc1OC`, for which the “activity change, negative = inhibition” value is inactive: -5.91%.
With `CCOc1ccc(OCC)c(NC(=O)c2csc3c2CCCC3)c1`, the “activity change, negative = inhibition” value was inactive: -9.47%.
As for `Cc1ccc(-c2nnc(Nc3cccc(O)c3)c3ccccc23)cc1S(=O)(=O)N1CCCCC1`, the result was inactive.
With `COc1cc(NC(=O)N2CCC(CN3CCc4ccccc4C3)CC2)cc(OC)c1`, the “activity change, negative = inhibition” value is inactive: 0.973%.
As for `COc1ccc(NC(=O)c2cc(C)nc3c2c(C)nn3-c2cccc(Cl)c2C)c(OC)c1`, the “activity change, negative = inhibition” value is inactive: -9.51%.
In the case of `CC(=O)N1c2c(cc(Br)cc2S(=O)(=O)NCc2ccccc2Cl)CC1C` (stereo unspecified), the “activity change, negative = inhibition” value is inactive: 4.62%.
For the molecule `Cc1ccc2oc(-c3ccc(NC(=O)c4cccc(F)c4)c(C)c3)nc2c1`, the “activity change, negative = inhibition” value was inactive: -3.82%.
Take `COc1cc(Cl)c(NC(=O)CN(C)S(=O)(=O)c2ccc3c(c2)CCCC(=O)N3)c(OC)c1`: the molecule was called inactive.
With `COc1ccccc1C(=O)Nc1c(C(=O)N(C)c2ccccc2)sc2nc(C)cc(C)c12`, the “activity change, negative = inhibition” value is inactive: 3.12%.
Regarding `Cn1c(SCC(=O)c2ccc(F)cc2)nnc1-c1ccccc1Br`, the molecule was classed as inactive.
As to `COc1ccc(C)cc1NC(=O)CSc1ccc(-c2ccccn2)nn1`, the “activity change, negative = inhibition” value was inactive: -34.4%.
For `CCOC(=O)c1ccc(OC(=O)CCCCCN=C(N)N)cc1`, the “activity change, negative = inhibition” value was inactive: -0.314%.
On to `Cc1cccc(NC(=O)c2oc3ccccc3c2NC(=O)c2cc(=O)c3cc(Cl)ccc3o2)c1`, for which the “activity change, negative = inhibition” value is inactive: -0.551%.
Same read-out and setting: the result for `Cc1ccc(S(=O)(=O)Nc2nc3n(n2)C(c2ccccc2Cl)C=C(c2ccccc2)N3)cc1` (stereo unspecified) reads inactive: 1.27%.
`COc1ccc(-c2nc(Cn3c(SCc4ccccc4F)nc4ccncc43)c(C)o2)cc1OC`: the “activity change, negative = inhibition” value was inactive: 3.28%.
Take `O=C(Nc1ccc(Cl)cc1)c1cc(S(=O)(=O)N2CCc3ccccc32)ccc1F`: the molecule was called inactive.
For `COc1cccc(CNC(=O)CN2C(=O)COc3ccc(S(=O)(=O)Nc4ccccc4)cc32)c1`, the “activity change, negative = inhibition” value was inactive: -0.153%.
In the case of `O=C(CCS(=O)(=O)c1cc(Br)cc2c1N(C(=O)C1CC1)CC2)Nc1ccc(C(F)(F)F)cc1`, the “activity change, negative = inhibition” value was inactive: -2.94%.
As for `COc1ccc(CNC(=O)C2CCN(C(=O)N3CC(C)Oc4ccc(C)cc43)CC2)cc1` (stereo unspecified), the “activity change, negative = inhibition” value is inactive: 1.7%.
Turning to `CN(Cc1ccccc1)C(=O)C1CCN(S(=O)(=O)c2ccc3nc4c(c(C(=O)O)c3c2)CCCC4)CC1`, the “activity change, negative = inhibition” value was inactive: 11.2%.
`Cn1c(=O)c2sccc2n2c(CCC(=O)NCc3ccccc3Cl)nnc12`: the “activity change, negative = inhibition” value was inactive: 21.9%.
In the case of `Cc1cc(C)cc(NC(=O)C2CCC(CNS(=O)(=O)c3ccc4c(c3)C(C)(C)C(=O)N4C)CC2)c1` (stereo unspecified), the “activity change, negative = inhibition” value is inactive: 19.5%.
With `CCn1cc(C(=O)NCCc2ccc(C)cc2)c(=O)c2cc(S(=O)(=O)N3CCCCC3)ccc21`, the molecule was called inactive.
With `COc1ccc(CCNC(=O)c2c(C)oc3ncn(CC(C)C)c(=O)c23)cc1OC`, the “activity change, negative = inhibition” value is inactive: 20.9%.
Regarding `CCOc1ccc(C(=O)Nc2cc(-c3cn4cccnc4n3)ccc2C)cc1OCC`, the molecule was called inactive.
In the case of `O=C(c1ccco1)N1CCN(c2nc3c(Cl)cccc3s2)CC1`, the “activity change, negative = inhibition” value is inactive: 5.88%.
Same read-out and setting: for `CCN(CC)S(=O)(=O)c1nnc(NC(=O)c2ccc(C(C)C)cc2)s1` the value was inactive: 9.21%; for `CC1CCN(c2ncnc3c2nnn3C)CC1`, inactive: 5.77%; for `O=C(Cn1c(=O)n(-c2ccc(Cl)cc2)c(=O)c2oc3ccccc3c21)Nc1ccccc1`, inactive: -8.92%.
Take `Cc1cccc(N2CCN(CCCNC(=O)c3nnc(Cc4c(F)cccc4Cl)o3)CC2C)c1` (stereo unspecified): the “activity change, negative = inhibition” value was inactive: -4.87%.
Consider `COc1ccc(C2=C(C)C(=O)N(Cc3ccc(C(=O)Nc4cc(C)ccc4C)cc3)S2(=O)=O)cc1`, for which the “activity change, negative = inhibition” value is inactive: -5.08%.
The same measure, in the same setting: for `Cn1cnc(S(=O)(=O)N2CCC(C(=O)NCc3ccc(F)cc3)CC2)c1` the value was inactive: 10.6%; for `O=C(Cc1ccc(Cl)cc1)NCC(c1cccs1)S(=O)(=O)c1ccc(F)cc1` (stereo unspecified), inactive: 3.13%.
`COc1cccc(C(=O)Nc2ccccc2-c2nnc(-c3cc(OC)ccc3Br)o2)c1`: the molecule was classed as inactive.
With `COc1cccc(C(=O)Nc2ccc3nc(N4CCC(C)CC4)cc(C)c3c2)c1`, the “activity change, negative = inhibition” value is inactive: 4.13%.
As for `O=C(COC(=O)c1cccc(NC(=O)c2ccc(Br)cc2)c1)c1ccc(Br)cc1`, the “activity change, negative = inhibition” value is inactive: -0.694%.
Regarding `Cc1nn2c(=O)cc(COC(=O)c3cccc(NC(=O)c4ccc(C(C)(C)C)cc4)c3)nc2s1`, the “activity change, negative = inhibition” value is inactive: 3.22%.
The same measure, in the same setting: for `COc1cc(NC(=O)Cn2nc(-c3ccc(C)c(C)c3)ccc2=O)cc(OC)c1` the value was inactive: -0.327%; for `CCOC(=O)c1c(C)oc2nc(C)nc(NCCc3ccc(SC)cc3)c12`, inactive: -0.747%.
The same measure, in the same setting: for `Cc1ccc(S(=O)(=O)c2nc(S(C)(=O)=O)sc2NCc2ccccc2)cc1` the value was inactive: 5.4%.
Regarding `COc1ccccc1N1CCN(c2nc3ccc(C)cc3n3nnnc23)CC1`, the “activity change, negative = inhibition” value is inactive: 2.15%.
Still for that read-out and setting: for `CC(C)NC(=O)c1ccccc1NC(=O)c1nsc2ccccc12` the value was inactive: 0.448%.
As to `CCN(CC)S(=O)(=O)c1ccc2c(c1)N(CC(=O)Nc1ccc(C)cc1C)C(=O)C1CCCN21` (stereo unspecified), the “activity change, negative = inhibition” value was inactive: -4.87%.
Regarding `COc1ccc(C2=CC(c3cccc(C)c3)n3nnnc3N2)cc1` (stereo unspecified), the “activity change, negative = inhibition” value was inactive: 5.59%.
Consider `COc1ccc(C(=O)CCC(=O)Nc2ccc(OC)c(Cl)c2)cc1`, for which the “activity change, negative = inhibition” value was inactive: 2.48%.
For the molecule `CCOC(=O)c1[nH]c2c(c1Cc1ccccc1OC)C(=O)CC(c1ccc(OCC)cc1)C2` (stereo unspecified), the “activity change, negative = inhibition” value is inactive: -11.4%.
In the case of `COc1ccc(S(=O)(=O)c2c(Nc3ccc(C)cc3)sc(C(=O)c3ccc4c(c3)OCO4)c2N)cc1`, the “activity change, negative = inhibition” value is inactive: 13.3%.
Regarding `Cc1cnc2c(c1SCC(=O)Nc1ccc(F)cc1F)c(=O)n(C)c(=O)n2C`, the “activity change, negative = inhibition” value is inactive: 2.82%.
